Hit rate of the full screen: of about 310,000 compounds, about 14,000 (4.5%) showed an effect of 50% or more. Effects have a minus sign here. The list shows a part of the results.
Target: human ether-à-go-go-related gene (hERG) potassium channel (human, UniProt Q12809)
Assay: primary screen, population patch clamp on CHO cells stably expressing hERG
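Also: peak tail current of the secondary pulse compared with the same well before compound.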

human ether-à-go-go-related gene (hERG) potassium channel, sequence (Q12809 whole entry, looked up): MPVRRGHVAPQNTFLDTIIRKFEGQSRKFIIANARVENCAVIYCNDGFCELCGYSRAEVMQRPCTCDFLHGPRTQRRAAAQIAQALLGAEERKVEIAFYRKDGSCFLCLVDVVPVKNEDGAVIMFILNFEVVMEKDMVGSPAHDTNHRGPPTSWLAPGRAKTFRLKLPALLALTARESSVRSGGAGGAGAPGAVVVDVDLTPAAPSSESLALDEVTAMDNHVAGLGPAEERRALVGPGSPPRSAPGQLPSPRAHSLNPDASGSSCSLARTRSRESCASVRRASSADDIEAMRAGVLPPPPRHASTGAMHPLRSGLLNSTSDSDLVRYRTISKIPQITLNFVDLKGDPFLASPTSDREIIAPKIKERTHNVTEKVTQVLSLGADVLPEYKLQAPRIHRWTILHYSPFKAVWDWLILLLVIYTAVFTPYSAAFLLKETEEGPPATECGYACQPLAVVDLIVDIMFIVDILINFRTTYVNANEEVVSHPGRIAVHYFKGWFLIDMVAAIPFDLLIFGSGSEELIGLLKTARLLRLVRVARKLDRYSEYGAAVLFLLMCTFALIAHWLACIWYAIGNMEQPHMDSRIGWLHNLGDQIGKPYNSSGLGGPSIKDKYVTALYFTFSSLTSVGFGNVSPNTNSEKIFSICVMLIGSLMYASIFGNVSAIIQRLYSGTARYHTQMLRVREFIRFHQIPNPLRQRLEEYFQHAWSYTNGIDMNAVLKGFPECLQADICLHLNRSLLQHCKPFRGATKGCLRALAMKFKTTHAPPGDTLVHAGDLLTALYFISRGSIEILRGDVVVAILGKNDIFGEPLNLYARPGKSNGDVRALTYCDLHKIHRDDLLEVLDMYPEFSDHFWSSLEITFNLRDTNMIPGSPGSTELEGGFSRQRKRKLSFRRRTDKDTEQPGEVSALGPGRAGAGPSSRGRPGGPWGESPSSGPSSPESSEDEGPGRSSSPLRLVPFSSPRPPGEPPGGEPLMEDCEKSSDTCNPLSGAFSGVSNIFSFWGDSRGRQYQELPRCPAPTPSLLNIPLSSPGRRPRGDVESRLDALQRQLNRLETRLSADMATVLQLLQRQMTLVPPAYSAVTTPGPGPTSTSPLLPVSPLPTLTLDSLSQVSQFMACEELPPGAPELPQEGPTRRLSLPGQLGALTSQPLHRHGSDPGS

First: Cc1ccc2c(ccc[n+]2CC(=O)c2ccccc2)c1.[Br-]
Second: O=C(c1ccccc1)c1ccc2cc(O)ccc2c1
The “hERG current change (%, negative = inhibition) at 10uM” value of the first is lower: -13.1% for the first, -8.81% for the second.

Compared with `CCN1CCN(Cc2nnnn2C(C)(C)C)CC1`, `CCC(c1nnnn1C(C)(C)CC)N1CCN(c2ccccc2F)CC1` (stereo not shown) is higher in “hERG current change (%, negative = inhibition) at 10uM” value: -1.73% for the first, 30.6% for the second.

Going from `CCCOP(=O)(OCCC)C(Nc1cccc(C(F)(F)F)c1)c1ccc(C)cc1` (stereo not shown) to `COC(=O)/C=C/C(=O)Nc1cccc(C(F)(F)F)c1`, the “hERG current change (%, negative = inhibition) at 10uM” value falls from 24.4% to 10.6%.

First: COc1cc(/C=N/NC(=O)CNC(=O)/C=C/c2ccco2)cc(OC)c1OC
Second: COc1ccc(CC(=O)OC(C)C(=O)NCc2ccc3c(c2)OCO3)cc1OC (stereo not shown)
The “hERG current change (%, negative = inhibition) at 10uM” value of the first is higher: 17.4% for the first, -6.66% for the second.

First: OCC1(CCOc2ccccc2)CCN(Cc2ccccc2C(F)(F)F)CC1
Second: CCCOc1ccc(-c2cc(C(F)(F)F)c(C#N)c(SCC(=O)O)n2)cc1
The “hERG current change (%, negative = inhibition) at 10uM” value of the first is lower: -34.2% for the first, 26% for the second.

Compared with `N#CC(c1ccc(Cl)cc1)(c1ncc(C(F)(F)F)cc1Cl)N1CCOCC1` (stereo not shown), `Cc1nnsc1-c1c(C(=O)N2CCOCC2)c(C)nn1-c1ccc(Cl)cc1` is higher in “hERG current change (%, negative = inhibition) at 10uM” value: -8.25% for the first, 1.32% for the second.

Going from `CN(c1ccc(OCc2nnc(-c3ccccc3)o2)cc1)S(=O)(=O)c1ccccc1` to `N#C/C(=C/c1ccc(CNS(=O)(=O)c2ccccc2)o1)C(=O)NCc1ccccc1`, the “hERG current change (%, negative = inhibition) at 10uM” value falls from -13.2% to -20.8%.

Compared with `Cc1ccc(CNC(=O)Cn2nnc(C(=O)Nc3cc(C)ccc3C)c2N)cc1`, `Cc1cccc(NCCC(=O)c2ccc([N+](=O)[O-])cc2)c1C` is lower in “hERG current change (%, negative = inhibition) at 10uM” value: 16.1% for the first, 7.68% for the second.

Going from `COCCNC(=O)CS(=O)(=O)Cc1nc(-c2ccc(C)cc2)oc1C` to `COC(=O)NNS(=O)(=O)c1ccc(C)cc1`, the “hERG current change (%, negative = inhibition) at 10uM” value rises from 5.53% to 28.5%.

Going from `COc1cc(OC)cc(C(=O)Nn2cc(C(=O)Nc3ccc(F)cc3F)c3ccccc3c2=O)c1` to `COc1ccc(NC(=O)c2ccco2)cc1NC(=O)COc1ccccc1`, the “hERG current change (%, negative = inhibition) at 10uM” value falls from 1.46% to 1.24%.

First: COC(=O)c1c(NC(=O)C2CC2)sc(C(=O)Nc2ccccc2)c1C
Second: CCOC(=O)c1c(NC(=O)c2cccs2)sc(C(=O)N(C)C)c1C
The “hERG current change (%, negative = inhibition) at 10uM” value of the first is higher: 7.58% for the first, -10.9% for the second.

Going from `Cc1cc(Nc2ccccc2)nn1C(=O)c1ccc(Br)cc1` to `Cc1cc(C)n(CC(=O)Nc2ccccc2)n1`, the “hERG current change (%, negative = inhibition) at 10uM” value falls from 12.2% to 8.25%.

First: O=C(CC(=O)Nc1ccccc1C(=O)O)NNC(=O)Cc1ccccc1
Second: NC(=O)NNC(=S)Nc1cccc2ccccc12
The “hERG current change (%, negative = inhibition) at 10uM” value of the first is lower: -2.35% for the first, 24.9% for the second.

First: CNC(=O)CS(=O)(=O)CC(=O)Nc1cc(OCCOC)c(Cl)cc1Cl
Second: O=C(O)c1ccc(Cl)c(S(=O)(=O)Nc2ccccc2C(=O)Nc2ccc(Cl)cc2)c1
The “hERG current change (%, negative = inhibition) at 10uM” value of the first is lower: 10.6% for the first, 16.9% for the second.

Compared with `Cc1ccccc1C(=O)NC1CC2CCCC(C1)N2Cc1ccc(Cl)cc1` (stereo not shown), `N#Cc1ccc(Cn2cc(C(=O)c3ccco3)c3ccccc32)cc1` is lower in “hERG current change (%, negative = inhibition) at 10uM” value: -71% for the first, -76.7% for the second.

First: CC(=O)c1c(C)nn(CC(O)COc2ccc3ccccc3c2)c1C (stereo not shown)
Second: COCc1cc(OC(=O)N(C)C)nc(-c2ccccc2)n1
The “hERG current change (%, negative = inhibition) at 10uM” value of the first is lower: 5.03% for the first, 9.91% for the second.

First: O=C(O)CC(NC(=O)C12CC3CC(CC(C3)C1)C2)c1cc([N+](=O)[O-])ccc1Cl (stereo not shown)
Second: CC(=O)N1c2ccc(S(=O)(=O)N3CCC(C(=O)NC4CCCCC4C)CC3)cc2CC1C (stereo not shown)
The “hERG current change (%, negative = inhibition) at 10uM” value of the first is lower: -1.61% for the first, 12% for the second.

Compared with `COc1cc(CNC(C)(C)C)ccc1OCC(=O)NC(C)(C)C`, `CCCC(C)c1nc(C(N)=O)c2[nH]c(=O)n(-c3ccc(OC)c(OC)c3)c2n1` (stereo not shown) is lower in “hERG current change (%, negative = inhibition) at 10uM” value: 15.8% for the first, 12.6% for the second.

Compared with `Cc1cc(S(=O)(=O)Nc2ccc(F)cc2)c(C)s1`, `Cc1ccc(-c2nc3ccc(NS(=O)(=O)c4ccccc4)cc3[nH]2)o1` is lower in “hERG current change (%, negative = inhibition) at 10uM” value: -4.19% for the first, -47.3% for the second.

Compared with `COc1cccc(N=C(N)N)c1.Cl`, `CCCCc1ccc(NC(=S)NCc2cccc(OC)c2)cc1` is lower in “hERG current change (%, negative = inhibition) at 10uM” value: 12.6% for the first, 8.67% for the second.

Compared with `COc1ccc(CN(C(=O)CN2C(=O)c3ccccc3S2(=O)=O)C(C(=O)NCC2CCCO2)c2ccco2)cc1` (stereo not shown), `O=C(NCCc1ccccc1)/C(=C\c1ccc([N+](=O)[O-])cc1)NC(=O)c1ccco1` is lower in “hERG current change (%, negative = inhibition) at 10uM” value: -4.57% for the first, -80.7% for the second.

First: S=c1nc(NCc2cccc(Cl)c2)c2ccccc2[nH]1
Second: O=C1Nc2ccc(Br)cc2C(c2ccccc2)=NC1O (stereo not shown)
The “hERG current change (%, negative = inhibition) at 10uM” value of the first is lower: 11.2% for the first, 13.1% for the second.

Going from `CC1CN(C(=O)CSc2nnc3c(Cl)cc(Cl)cn23)CC(C)O1` (stereo not shown) to `CCCc1nnc(SCC(=O)N2CCCC2)n1CC1CCCO1` (stereo not shown), the “hERG current change (%, negative = inhibition) at 10uM” value falls from 2.55% to -1.61%.

First: Cc1ccc(N2CC(C(=O)NC3CCSC3=O)CC2=O)cc1 (stereo not shown)
Second: Cc1ccc(C)c(S(=O)(=O)N(C)C2CCS(=O)(=O)C2)c1 (stereo not shown)
The “hERG current change (%, negative = inhibition) at 10uM” value of the first is higher: 18.7% for the first, -3.44% for the second.

First: Cc1nc2nc[nH]n2c(=O)c1CCOC(=O)c1c(F)cccc1F
Second: COc1cc(NC(=O)CCc2c(C)nc3nc(C)nn3c2C)cc(OC)c1
The “hERG current change (%, negative = inhibition) at 10uM” value of the first is higher: 11.4% for the first, -9.8% for the second.

Going from `CCN(CC)c1ccc(/C=N/N=C(c2ccccc2)c2ccccc2)c(O)c1` to `CCn1c(Cc2ccccc2)nnc1SCC(=O)Nc1ccccc1`, the “hERG current change (%, negative = inhibition) at 10uM” value falls from -7.56% to -12.8%.

First: c1ccc(CN(Cc2ccco2)C(c2ccncc2)c2nnnn2C2CCCC2)cc1 (stereo not shown)
Second: CCC(c1nnnn1Cc1ccc(OC)cc1)N1CCN(C(=O)c2ccco2)CC1.Cl (stereo not shown)
The “hERG current change (%, negative = inhibition) at 10uM” value of the first is higher: -14.1% for the first, -55.5% for the second.

Going from `O=C(NCC1CCCO1)C1CCCN1C(=O)NC1CCCCC1` (stereo not shown) to `O=C(NCCO)C(=O)NCC1OCCCN1S(=O)(=O)c1ccc2c(c1)OCCO2` (stereo not shown), the “hERG current change (%, negative = inhibition) at 10uM” value falls from 11.9% to -27.8%.

First: CSCCC(NC(=O)c1cccc(S(=O)(=O)N2CCOCC2)c1)C(=O)Nc1cccc(C)c1 (stereo not shown)
Second: O=C(c1cccc(S(=O)(=O)N2CCOCC2)c1)N1CCCC(C(F)(F)F)C1 (stereo not shown)
The “hERG current change (%, negative = inhibition) at 10uM” value of the first is higher: 14.1% for the first, 2.76% for the second.

Going from `CC1(c2nnc(-c3ccncc3)o2)CC(c2c(Cl)cccc2Cl)=NO1` (stereo not shown) to `Cc1noc2ncnc(Oc3ccccc3Cl)c12`, the “hERG current change (%, negative = inhibition) at 10uM” value rises from -69.8% to 6.08%.

Going from `CCOc1ccc(-n2c(C)cc(/C=N/Nc3nc(C)cc(=O)[nH]3)c2C)cc1` to `CCOC(=O)c1c(-c2ccc(OC)cc2)oc2cc(Br)c(O)cc12`, the “hERG current change (%, negative = inhibition) at 10uM” value falls from 30.2% to 10.4%.

Compared with `CCn1c(SCC(=O)N(C)C)nc2cc(S(=O)(=O)N3CCOCC3)ccc21`, `CS(=O)(=O)c1ccc2nc(NC(=O)CN3CCOCC3)sc2c1` is higher in “hERG current change (%, negative = inhibition) at 10uM” value: -1.91% for the first, 24.1% for the second.

First: CCN1CCN(c2nn3c(=O)c4ccccc4nc3c3ccccc23)CC1
Second: CCN1CCN(c2ccc(NC(=O)c3ccc(F)cc3)cc2Cl)CC1
The “hERG current change (%, negative = inhibition) at 10uM” value of the first is higher: -72.7% for the first, -75.6% for the second.

Going from `COC(=O)Cn1c(C)nc2c(sc3nc(C)cc(C)c32)c1=O` to `Cc1cc(C)c(C)c(Cn2c(CO)nc3ccccc32)c1C`, the “hERG current change (%, negative = inhibition) at 10uM” value rises from -8.44% to -4.5%.

Compared with `CCC/C(O)=C1\C(=O)CCCC1=NC(C)C(=O)O` (stereo not shown), `CN1CCc2[nH]c3ccc(C(=O)NN)cc3c2C1` is higher in “hERG current change (%, negative = inhibition) at 10uM” value: 2.15% for the first, 5.22% for the second.

Compared with `O=C(NCCNCc1ccc(F)cc1)c1ccco1.O=C(O)C(=O)O`, `C=CCOc1cccc(C2C(C(=O)c3ccco3)=C(O)C(=O)N2Cc2ccncc2)c1` (stereo not shown) is higher in “hERG current change (%, negative = inhibition) at 10uM” value: 9.99% for the first, 24% for the second.

Compared with `COC(=O)C1=C(C)N(C)C(C)=C(C(=O)OC)C1c1ccsc1`, `COc1ccc(OC)c(NS(=O)(=O)c2c(C(=O)N3CCCCCC3)c(C)n(C)c2C)c1` is higher in “hERG current change (%, negative = inhibition) at 10uM” value: 3.35% for the first, 3.61% for the second.

Compared with `CCOC(=O)C1CCN(S(=O)(=O)c2cccc(-c3cn4cccnc4n3)c2)CC1`, `NS(=O)(=O)c1ccc(SCc2ccccc2)nc1` is higher in “hERG current change (%, negative = inhibition) at 10uM” value: -24.7% for the first, -0.995% for the second.

First: C#CCN1C(=O)S/C(=C\c2ccc(-c3ccc(Cl)c(C(=O)O)c3)o2)C1=O
Second: Cc1cccc(NC(=O)COc2ccc(/C=C\c3[nH]c(=O)[nH]c(=O)c3[N+](=O)[O-])cc2)c1
The “hERG current change (%, negative = inhibition) at 10uM” value of the first is higher: 19.7% for the first, -3.03% for the second.

First: Cc1cc(C)nc(SCCN2CCOCC2)n1.Cl
Second: COc1ccc2c(c1)c1ncn(CCN3CCCC3)c(=O)c1n2C
The “hERG current change (%, negative = inhibition) at 10uM” value of the first is higher: 15.5% for the first, -42.5% for the second.

Compared with `O=c1c(Cl)c(NCCO)cnn1-c1cccc(Cl)c1`, `Cc1ccc(NC(=O)CCNS(=O)(=O)c2ccc3c(c2)CCC(=O)N3)cc1F` is higher in “hERG current change (%, negative = inhibition) at 10uM” value: 3.96% for the first, 18.1% for the second.

First: COc1ccc([N+](=O)[O-])cc1-n1cccc1
Second: CC(=O)Nc1cccc(Oc2cc(C#N)c(C#N)cc2N2CCCCCC2)c1
The “hERG current change (%, negative = inhibition) at 10uM” value of the first is lower: -7.21% for the first, 1.08% for the second.

Compared with `C[n+]1c(-c2ccccc2)c2cc(N)ccc2c2ccc(N)cc21.[Br-]`, `CCC(=O)Nc1ccc(NC(=O)c2cccc3c(Br)cccc23)cc1` is lower in “hERG current change (%, negative = inhibition) at 10uM” value: 15.4% for the first, 3.96% for the second.

Compared with `COc1ccccc1-c1nnc(N(C)C(=O)C2CCCO2)s1` (stereo not shown), `O=C(CSc1nc2ccc(Nc3nc(N4CCOCC4)nc(N4CCOCC4)n3)cc2s1)Nc1ccccc1F` is higher in “hERG current change (%, negative = inhibition) at 10uM” value: -14% for the first, 15.4% for the second.
